In PubChem BioAssay AID686979 (National Center for Advancing Translational Sciences (NCATS), 2013):
The whole screen tested about 420,000 compounds, of which about 50,000 (12%) were called active. The inconclusive results got no clear call from the source; some entries with a clear call stand among them for comparison. The call rests on the fitted dose curve; in most records, active means well fitted inhibition curve with a large enough effect; inconclusive means small, poorly fitted or top-dose-only effect; inactive means flat fitted curve, though single readings scatter. Potencies of inconclusive entries are left out as doubtful fits.

Test: qHTS for Inhibitors of human tyrosyl-DNA phosphodiesterase 1 (TDP1): qHTS in cells in presence of CPT; further: nearly all actives have a fitted effect of over 55% in size
Conditions: chicken DT40 Tdp1-/-;hTDP1 cells + 20 nM CPT, ATP luminescence, 48 h; series mostly up to 46.2 µM
Procedure, shortened: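 Cell growth measured by CellTiter-Glo luminescence after a minimum 48 h, 37 C compound exposure with 20 nM CPT in Tdp1-knockout DT40 cells stably expressing hTDP1, seeded 400/well; qHTS titration format.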
Potency means the concentration at half of the fitted maximal effect; tags describe the fitted curve by direction and shape.

Row | Structure (SMILES) | Potency
1 | CCCN(C(=O)c1cc(S(=O)(=O)N(C)c2ccc(OCC)cc2)ccc1C)C1CCS(=O)(=O)C1 (stereo unspecified) | inconclusive [inhibitor, single point]
2 | O=C(Nc1ccc(S(=O)(=O)NC2=NCCCCC2)cc1)c1ccc(Cl)cc1Cl | inactive
3 | CCCCN(Cc1ccc(C(=O)N[C@H](C(=O)O)C(C)C)cc1)C(=O)C(c1ccccc1)c1ccccc1 | inactive
4 | CS(=O)(=O)N(CC(=O)Nc1ccccc1C(=O)NCc1ccccc1)c1ccc2c(c1)OCCO2 | inconclusive [inhibitor, partial curve]
5 | CCOc1ccc2nc(NC(=O)c3ccccn3)sc2c1 | active: 0.82 µM
6 | Nc1nc(N)c2c(Oc3ccc(F)cc3)cccc2n1 | active: 12.6 µM
7 | Nc1nc(Nc2ccccc2F)nc(N2CCCC2)c1[N+](=O)[O-] | inconclusive [inhibitor, single point]
8 | CCN(CC(=O)Nc1c(F)cccc1F)C(=O)/C=C/c1ccc(Br)s1 | inconclusive [inhibitor, single point]
9 | O=C(O)C1CC=CCC1C(=O)Nc1ccc2c(c1)CCC2 (stereo unspecified) | inactive
10 | O=C(CN(c1cccc(C(F)(F)F)c1)S(=O)(=O)c1ccccc1)Nc1cccc(Cl)c1 | active: 16.4 µM
11 | CC(C)(C)OC(=O)NCc1ccc(NC(=O)c2nc[nH]c2C(=O)NCCCCNC(=O)c2[nH]cnc2C(=O)Nc2ccc(CNC(=O)OC(C)(C)C)cc2)cc1 | active: 4.11 µM
12 | Cc1nc(N(C)Cc2ccccc2)c2nnn(Cc3ccccc3)c2n1 | active: 23.1 µM
13 | CC1CN(C(NC(=O)c2ccccc2)C(Cl)(Cl)Cl)CC(C)O1 (stereo unspecified) | inactive
14 | CC(=O)NC(c1ccc([N+](=O)[O-])cc1)c1c(O)ccc2ccccc12 (stereo unspecified) | inactive
15 | COc1ccc(/C=C2/SC(=S)N(CCCC(=O)Nc3ccc(O)cc3)C2=O)cc1OC | inconclusive [inhibitor, single point]
16 | COc1ccc(Cl)cc1NC(=O)Cn1nnc(C(=O)NCc2cccs2)c1N | active: 4.61 µM
17 | O=C(N=C1SC2CS(=O)(=O)CC2N1c1ccccc1)c1ccccc1 (stereo unspecified) | inactive
18 | COc1ccc(-c2cnc3c(NC(C)=O)cc(-c4ccccc4CN(C)C)cn23)cc1OC | inconclusive [inhibitor, single point]
19 | COc1cccc(C(C)(O)c2nc(-c3ccc(Cl)cc3)cs2)c1 (stereo unspecified) | inconclusive [inhibitor, single point]
20 | COc1ccc(/C=C2\CCC(C3CCCC3)C2=O)cc1 (stereo unspecified) | inactive
21 | COc1ccc(NC(=O)Nc2nnc(Cc3ccccc3)s2)cc1 | inconclusive [inhibitor, single point]
